Patent publication US11478477B2, “Method for treating cancer by combination of FAK/ALK/ROS1 inhibitor and EGFR inhibitor” (ASCENTAGE PHARMA (SUZHOU) CO., LTD., priority 2018, dated 2022)

Columns and labels:
[1] = system: human NCI-H1975 xenograft tumor model; assay: Example 7: Compound 5 or Ensartinib with AZD9291 in xenograft tumor model; assay type: in vivo, mouse; settings: Compound 5 50 mg/kg; Ensartinib 20 mg/kg; AZD9291 2 mg/kg; orally, once per day, 21 days
Description: The dosage regimen was as follows:

[2] = system: human NCI-H1975 xenograft tumor model; assay: Example 6: Compound 5 or Defactinib with AZD9291 in xenograft tumor model; assay type: in vivo, mouse; settings: Compound 5 50 mg/kg; Defactinib 50 mg/kg; AZD9291 2 mg/kg; orally, once per day, 22 days
Description: The dosing regimen was as follows:

[3] = system: human EGFR^T790M-mutant NCI-H1975 lung cancer xenograft tumor model; settings: for RTV on Day 15 after administration (mean ± standard error) / T/C on Day 15 after administration (%): Compound 5 100 mg/kg, AZD9291 2 mg/kg, orally, once per day, 15 days

| SMILES | T/C on Day 21 after administration (%) [1] [%] | RTV on Day 22 after administration (mean ± standard error) [2] | T/C on Day 22 after administration (%) [2] [%] | RTV on Day 15 after administration (mean ± standard error) [3] | T/C on Day 15 after administration (%) [3] [%] | Tumor status on Day 15 after administration (regression rate, %) [3] |
| --- | --- | --- | --- | --- | --- | --- |
| Cc1cc(Nc2ncc(Cl)c(Nc3ccccc3S(=O)(=O)C(C)C)n2)c(OC(C)C)cc1C1=CCN(C2CCOCC2)CC1 [Compound 5, 5-chloro-N^2-(2-isopropoxy-5-methyl-4-(1-(tetrahydro-2H-pyran-4-yl)-1,2,3,6-tetrahydropyridin-4-yl)phenyl)-N^4-(2-(isopropylsulfonyl)phenyl)pyrimidine-2,4-diamine] | 80 | 9.6 ± 4.0 | 70.6 | 9.6 ± 1.9 | 57.0 | 0% |
| C[C@@H]1CN(C(=O)c2ccc(NC(=O)c3cc(O[C@H](C)c4c(Cl)ccc(F)c4Cl)c(N)nn3)cc2)C[C@H](C)N1 [Ensartinib] | 61.3 | – | – | – | – | – |
| CNC(=O)c1ccc(Nc2ncc(C(F)(F)F)c(NCc3nccnc3N(C)S(C)(=O)=O)n2)cc1 [Defactinib] | – | 8.6 ± 1.1 | 63.2 | – | – | – |
| C=CC(=O)Nc1cc(Nc2nccc(-c3cn(C)c4ccccc34)n2)c(OC)cc1N(C)CCN(C)C [AZD9291, osimertinib] | 24.4 | – | 19.8 | 2.1 ± 0.3 | 12.0 | (17%) |
